# The campaign covered roughly 360,000 compounds. About 11,000 (3.1%) were called active. This list was built around the results that the source calls inconclusive (neither active nor inactive); the mix of calls is not that of the screen. Calls follow the shape of the dose curve; as a rule, active = well fitted inhibition curve with a large enough effect; inconclusive = small, poorly fitted or top-dose-only effect; inactive = no such curve, though single readings can be large or run the other way. No potency is given beside an inconclusive call; the fits are too rough.
# Target: Schistosoma mansoni thioredoxin glutathione reductase (TGR) (UniProt Q962Y6)
# Assay: qHTS Assay for the Inhibitors of Schistosoma Mansoni Peroxiredoxins; also: nearly all actives have a fitted effect of over 60% in size
# Conditions: purified TGR, DTNB reduction, TNB absorbance 405 nm; series mostly up to 114 µM
# Outline: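 Kinetic colorimetric format: TGR-catalysed, NADPH-driven DTNB reduction monitored via TNB absorbance. Enzyme dispensed at 20 nM; compound exposure 15 min at room temperature before reaction start.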
# Potency is read from the fitted curve at half-maximal effect; tags tell the direction and shape of the fitted curve.
row,Compound,Potency
1,COc1cc(/C=N/Nc2cccc(C)c2)cc(Br)c1O,active: 44.7 µM
2,CC(=O)N(C)c1ccc(NC(=O)c2ccccc2C(=O)O)cc1,inactive
3,CCOc1ccccc1C1C(C#N)=C(N)Oc2n[nH]c(CC)c21 (centres undefined),"inconclusive [inhibitor, full curve]"
4,Cc1cc(NC(=O)CSc2nnc(CNc3cccc(C(F)(F)F)c3)n2Cc2ccco2)no1,"inconclusive [inhibitor, partial curve]"
5,CN(Cc1c(F)cccc1Cl)C(=O)c1ccc(NS(=O)(=O)c2ccc3[nH]c(=O)[nH]c3c2)cc1,inactive
6,CNc1ccc(-c2nc(-c3ccccn3)no2)cc1[N+](=O)[O-],"inconclusive [inhibitor, partial curve]"
7,N#Cc1ccc(CSCC(=O)O)cc1,"inconclusive [inhibitor, single point]"
8,CC(=O)c1c[nH]c(C(=O)NCc2cccc(C(F)(F)F)c2)c1,inactive
9,Cn1nc([N+](=O)[O-])nc1S(C)(=O)=O,"inconclusive [inhibitor, partial curve]"
10,CCc1cc2c3c(c1)/C(=C1/SC(N)=NC1=O)C(=O)N3C(C)(C)C=C2C,"inconclusive [inhibitor, single point]"
11,O=S(=O)(N/N=C\c1ccc(-c2ccccc2Cl)o1)c1ccccc1,"inconclusive [inhibitor, partial curve, poor fit]"
12,Cc1ccc(CN(Cc2ccco2)C(=S)NCC(=O)NC2CC2)cc1,"inconclusive [inhibitor, full curve]"
13,COc1ccc(N2C(=O)CC(NC34CC5CC(CC(C5)C3)C4)C2=O)c(OC)c1 (centres undefined),"inconclusive [inhibitor, partial curve]"
14,Cc1nn(-c2ccc(Cl)cc2)c2[nH]c(CCl)cc(=O)c12,"inconclusive [inhibitor, full curve]"
15,CC(Sc1nnc(-c2ccco2)n1C)C(=O)Nc1nccs1 (centres undefined),"inconclusive [inhibitor, partial curve]"
16,Cc1[nH]c2ccccc2c1C(c1ccccn1)N1CCCC1 (centres undefined),"inconclusive [inhibitor, full curve, poor fit]"
17,O=c1nc(N2CCCC2)nc(Nc2ccccc2)[nH]1,inactive
18,O=C(O)CSCC(=O)N1CCCN(c2nc3ccc(Cl)cc3s2)CC1,inactive
19,CN1CCN(c2cc(=O)n(Cc3ccc(F)cc3)c(=O)[nH]2)CC1,"inconclusive [inhibitor, full curve]"
20,CN1CCN(C(=O)C2C3C=CC(C3)C2C(=O)O)CC1 (centres undefined),"inconclusive [inhibitor, partial curve]"
21,CC(=O)c1c2c3c(cccc3n(C)c1=O)C(=O)c1ccccc1-2,active: 8.91 µM
22,O=S(=O)(c1ccccc1F)N(Cc1ccco1)Cc1nnc(-c2ccccc2Br)o1,active: 15.8 µM
23,NC(=O)/C(=C/c1ccco1)C(N)=S,"inconclusive [inhibitor, partial curve]"
24,CCc1ccc(NC(=O)CSc2nnc(Cc3cccn3C)n2-c2ccc(F)cc2)cc1,"inconclusive [inhibitor, partial curve]"
25,O=C(CCl)NNC(=O)c1c(O)c2ccccc2[nH]c1=O,active: 14.1 µM

row,Compound,Potency
1,O=C(Cn1cc(C(F)(F)F)ccc1=O)Nc1ccc(N2CCOCC2)cc1,"inconclusive [inhibitor, single point]"
2,CC(=O)c1cccc(-n2nnnc2SCC(=O)Nc2ccccc2N2CCCCC2)c1,inactive
3,CCOC(=O)NC1(NCc2ccccc2)Oc2ccccc2O1,active: 31.6 µM
4,COc1ccc(C(=O)Nn2c(SCC(=O)NCc3ccco3)nc3ccccc3c2=O)cc1,"inconclusive [inhibitor, single point]"
5,Cc1cc(C)n2nc(CNS(=O)(=O)c3ccc(CC(C)C)cc3)nc2n1,inactive
6,O=C(Nc1ccc(S(=O)(=O)N2CCCC2)cc1)c1ccc2c(=O)n3c(nc2c1)CCCCC3,inactive
7,CCOc1ccc(NC(=O)NC(C)c2c(-n3cccc3)sc3c2CCN(CC)C3)cc1 (centres undefined),inactive
8,O=C(Nc1cccc(Br)c1)Nc1nc2c(s1)CCCCCC2,inactive
9,O=C(Oc1ccc(F)cc1)c1cccnc1,inactive
10,O=c1c(Cl)c(NCCCO)cnn1-c1nc2ccccc2[nH]1,active: 8.91 µM
11,OC1(c2ccc(Br)cc2)CCNCC1,active: 50.1 µM
12,CN1CN(C)C(c2ccncc2)=C1c1ccncc1,"inconclusive [inhibitor, partial curve]"
13,CN(C)/C=C/c1c([N+](=O)[O-])c2ccc(O)cc2n1-c1ccccc1,"inconclusive [inhibitor, full curve]"
14,COC(=O)c1sc(N2C(=O)C(=O)/C(=C(/O)c3ccccc3)C2c2ccco2)nc1C (centres undefined),"inconclusive [inhibitor, partial curve]"
15,c1csc(C2Nc3cccc4cccc(c34)N2)c1,active: 22.4 µM
16,Cc1ccc(-c2csc3ncnc(OCC(=O)NC(=O)NCc4ccco4)c23)cc1,"inconclusive [inhibitor, partial curve]"
17,CCN1CCOC(=O)C1CC(=O)Nc1cccc(OC)c1 (centres undefined),active: 17.8 µM
18,Nc1ccccc1C(=O)NCc1ccc(Cl)cc1,inactive
19,O=C(COC(=O)Cc1ccc(F)cc1)NCc1ccco1,"inconclusive [inhibitor, partial curve]"
20,Cc1ccccc1NC1=C/C(=N\S(=O)(=O)c2ccc(C(=O)O)cc2)c2ccccc2C1=O,"inconclusive [inhibitor, partial curve]"
21,O=C1c2oc3ccc(F)cc3c(=O)c2C(c2ccncc2)N1CCN1CCOCC1 (centres undefined),"inconclusive [inhibitor, partial curve]"
22,Cc1ccc(F)c([C@H]2[C@@H]3C=CCC[C@@]3(C)C(=O)N2Cc2ccccc2)c1,"inconclusive [inhibitor, partial curve]"
23,CCC(C(=O)N1CCN(c2cc(Cl)ccc2C)CC1)n1nc(C)c2sc3ccccc3c2c1=O (centres undefined),inactive
24,CC(C)C(C)(C#N)NC(=O)CSc1nncn1-c1ccccc1 (centres undefined),"inconclusive [inhibitor, single point]"
25,Cc1ccc(NC(=O)Nc2nnc(Cc3ccc([N+](=O)[O-])cc3)s2)cc1,inactive

row,Compound,Potency
1,C/C(CC(=O)Nc1ccc(C)c(Cl)c1)=N\NC(=O)c1cccc(O)c1,"inconclusive [inhibitor, full curve, poor fit]"
2,CCOc1ccc(-c2noc(CSc3nnc(-c4ccccc4)n3-c3ccccc3)n2)cc1,inactive
3,CC(C)C1OC2(C)OC(=N)C1(C#N)C(C#N)(C#N)C2c1ccccc1 (centres undefined),"inconclusive [inhibitor, partial curve]"
4,COc1ccccc1CCC(=O)OCC(=O)c1c(N)n(CC(C)C)c(=O)n(C)c1=O,"inconclusive [inhibitor, partial curve]"
5,CCN(CC)CCNC(=O)NC(=O)c1ccc(Cl)cc1,inactive
6,COc1ccccc1/C=C/C(=O)OCC(=O)c1c[nH]c2ccccc12,inactive
7,COc1ccccc1[C@@H]1C(c2cccc(C)c2)=NN(c2ccccc2)[C@H]1C(=O)N1CCOC1=O,inactive
8,COc1ccc(-c2nc(CS(=O)CC(=O)NC3CCCc4ccccc43)c(C)o2)cc1OC (centres undefined),active: 20 µM
9,Cc1c(C(=O)NCc2ccccc2)oc2ccc(S(=O)(=O)N3CCCC3)cc12,"inconclusive [inhibitor, partial curve, poor fit]"
10,Cc1c(C(=O)OCC(C)C)[nH]c2c1C(=O)CC(c1ccco1)C2 (centres undefined),"inconclusive [inhibitor, partial curve]"
11,CCOc1ccc(OCCC(=O)OCC(=O)Nc2cc(OCC)c(N3CCOCC3)cc2OCC)cc1,"inconclusive [inhibitor, partial curve]"
12,CC1CCN(S(=O)(=O)c2ccc(NN=C(C#N)C#N)cc2)CC1,"inconclusive [inhibitor, full curve]"
13,CCOc1cccc(/C=N/NC(=S)Nc2ccccc2[N+](=O)[O-])c1O,inactive
14,Cc1cc(C)nc(SCc2cc(=O)c(OC(=O)c3ccc(Br)o3)co2)n1,"inconclusive [inhibitor, full curve, poor fit]"
15,Cc1nc(N2CCN(Cc3ccccc3)CC2)nc2c1C(=O)CCC2,"inconclusive [inhibitor, partial curve]"
16,O=c1oc2c(CN3CCOCC3)c(O)ccc2c2c1CCC2,"inconclusive [inhibitor, partial curve]"
17,CCn1nnnc1SCC(=O)NCc1ccco1,active: 25.1 µM
18,CCC(C)(C)n1nnnc1C(c1cc2cc(C)cc(C)c2[nH]c1=O)N1CCCC1 (centres undefined),active: 22.4 µM
19,COc1ccc(N2CC(NC(=O)c3ccc4c(c3)OCO4)CC2=O)cc1OC (centres undefined),inactive
20,O=S(=O)(c1ccc(Br)cc1)c1nc(-c2ccco2)oc1NCCCn1ccnc1,active: 22.4 µM
21,Cc1ccccc1NC(=O)C1CCCN(c2ncnc3onc(-c4ccc(F)cc4)c23)C1 (centres undefined),inactive
22,O=C(NN(c1ccccc1)c1ccccc1)c1ccc([N+](=O)[O-])o1,"inconclusive [inhibitor, partial curve]"
23,COc1ccc(CN2CCNC(=O)C2CC(=O)N(C)Cc2cc(C)no2)cc1OC (centres undefined),"inconclusive [inhibitor, partial curve]"
24,CC(=O)NC(=S)Nc1ccc(NC(=O)COc2ccc(Cl)cc2)cc1,"inconclusive [inhibitor, full curve]"

# — PubChem BioAssay AID485364 (National Center for Advancing Translational Sciences (NCATS), 2010)
